Data taken from the supplement of paper PMC11417369.
± gives the standard deviation of the averaged measurements. This is one part of the list.

These sequences were tested on PfAP2-I AP2 domain 3 (GST-tagged) (assay: gcPBM binding intensity (ln(normalized median fluorescence intensity)); higher = stronger DNA binding).
Outline: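 Alexa488 anti-GST antibody, scanned at 488 nm, detected GST-tagged P. falciparum DNA-binding domains that had been expressed in E. coli and incubated for 1 h on an Agilent 4 × 180k array. The array carried primer-extended double-stranded 36-bp intergenic genomic probes and negative controls. Binding intensity is the highest Masliner-normalised natural-log median intensity across replicate spots of either orientation of each probe.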

Sequence	gcPBM binding intensity (ln)
GTATTTATATGATTAACACACATATGGGTATTAATA [CACACA_site4853]	7.63 ± 0.64
TTGCATTTTCTAGTAACACACAATTAGCGTTGCTGT [CACACA_site3594]	7.76 ± 0.42
TAACAAAAAGGGAACACATGCGCTCTTTATTTATTT [TGCATGCA_site620]	7.51 ± 0.57
TATAGAAGCATTCACACACACACATACATACACATA [CACACA_site1466]	8.03 ± 0.35
ATACATATAAATAATTGTACTATTAAAAAAGAACGT [XGTACX_site3751]	7.95 ± 0.45
CTTAGAATATATGAATGTACTTTTTTTTTTAAATAA [XGTACX_site6048]	7.29 ± 0.38
ATAATATATTTTTGTAGTACACTTCTGGTAATATCG [XGTACX_site2402]	8.07 ± 0.45
AGTATACAGATATATACACACATATATATATATATA [CACACA_site4323]	9.37 ± 0.47
AAAAAAAAAAATACTCGTACATAAACCTATACATTT [XGTACX_site6494]	7.61 ± 0.4
CAATTAGCATTTTATTGTACATTTATAATCTATGAT [XGTACX_site1445]	7.71 ± 0.55
TATATATATATATGTTGTACAAAAATGTAAAATATA [XGTACX_site7761]	9.19 ± 0.18
TAAGTAACTTTTAAAAGTACCCACACATATATATAT [XGTACX_site1231]	8.73 ± 0.38
ACAAAAATAAACTATAGTACACACTTATTATTATGA [XGTACX_site5680]	7.88 ± 0.56
TCATTTTATTTTTTCACACACACATCTATATTTATA [CACACA_site7547]	8.12 ± 0.67
TTTCTTTTTTTTTTTTTTTTTTTTTTTTTTTTTTTT [TGCATGCA_negctrl_site91]	10.3 ± 0.26
TATATTTATAGGTATACACACATATGTATGTTATGT [CACACA_site7824]	7.74 ± 0.45
TTATGTATTTATATAAATATAAATATATATATATAT [CACACA_negctrl_site774]	9.17 ± 0.42
TTTCCCTTGTTGTAAACATGCACAATATTTAGGTAT [TGCATGCA_site49]	8.39 ± 0.49
AAAAAAAAGAAAAACACACACATATATATATAGAAT [CACACA_site1006]	7.67 ± 0.71
AAAATATTTATTACTTCACACATTATTGTATTTATA [CACACA_site5082]	7.84 ± 0.61
CATATATTATTATATGCACACATGAAAATATACAAA [CACACA_site2795]	9.63 ± 0.33
TTGAAATATACGTAAGTAAATTTCATTTGGTTGTGT [XGTACX_negctrl_site600]	7.5 ± 0.61

Sequence	gcPBM binding intensity (ln)
TTTCTTTTTTTATAATCCACATTGGGAAAATCAAAA [TGCATGCA_negctrl_site159]	7.92 ± 0.39
ACGTATAATATGTACACACACATATATACAAAAAAA [CACACA_site917]	8.225 ± 0.064
GTATAACTTTTGCGCGTACACACATTTATCCTCTTT [CACACA_site208]	8.78 ± 0.49
AAAGTTGTTACGAACATACACACGAACATACTCACG [CACACA_site604]	7.65 ± 0.58
TAGAATATCCCCTACACACCCAAATAATTTACAAAT [CACACA_site4825]	8.15 ± 0.68
AAGATATTTGAATATACACACGATTTAAATTTAATA [CACACA_site3866]	7.62 ± 0.54
ATACGTGGGCAAAAAGTGCATATAATCAAAAAAAAA [GTGCAC_site9961]	10.4 ± 0.11
ATATATATATTTGTATGTACATATCATATTGTGTGT [XGTACX_site1580]	8.825 ± 0.021
TTCTTTCTGTTTTATTTATAATAATTTATGATAAAA [CACACA_negctrl_site766]	8.06 ± 0.44
TGTTTTTAATTTCGCACACACCTTGTGGAAAAAAAA [CACACA_site4482]	8.72 ± 0.26
ACACATACATATACATACACATTGTTTTCATGCATC [XGTACX_negctrl_site126]	8.06 ± 0.78
TATATGTGTCTACAGGTGCATATATCATATATTGCT	9.89
TAAATAAATTTATACACACACACACGGATATAAATA [CACACA_site6532]	7.86 ± 0.64
TATAAATATTTATACACACACATATATTTATATATC [CACACA_site6366]	7.83 ± 0.41
TATGTATTTTTATGCACACATGCGTGGCTTATATAA [CACACA_site387]	10.9 ± 0.13
ATATTTTCTTTAAATTGTACATATTGTGATACAAAA [XGTACX_site5886]	7.86 ± 0.42
TATATACATACATGTAGTACCTAATTCGGTCCCGTA [XGTACX_site2702]	7.66 ± 0.61
TTTCATTTAGCTTTTACACACTATATATTATTGATT [CACACA_site16]	7.91 ± 0.49
ATTTTTTTTTTTTTTTTTTTTTTGTTTATACAAAAT [CACACA_negctrl_site1241]	7.59 ± 0.46
GTTTGGTGGTGTTTTGGTACGTACGGGGGGGTATGT [XGTACX_site1983]	10.7 ± 0.37
TTTTTTTTTTTTTATTGTACTTATTTTTTTATGTTT [XGTACX_site7725]	8.22 ± 0.64
AAATATAAAGGATTAATATTATATATATATATATAT [XGTACX_negctrl_site211]	9.12 ± 0.4

Sequence	gcPBM binding intensity (ln)
GTATTATATATATAGGTGCATATATATATATAAATA [GTGCAC_site9787]	10.6 ± 0.33
ATGATATGGATAAATACACACAATAAAATAATGTCT [CACACA_site6786]	7.79 ± 0.73
TTTATTTATTTATGTTGTACAAGTTTATACTGGAAT [XGTACX_site6479]	8.06 ± 0.42
TTTTAACAAAACAAAACAAAATAATATAAAGATAAC [TGCATGCA_negctrl_site154]	8.16 ± 0.59
TTTTGATATAAAAAAAGTACATTAATAATATTAATT [XGTACX_site4248]	7.885 ± 0.078
TAAATAATAATAAATGTGCACAGGTATTAACAAAAA [GTGCAC_site9988]	9.38 ± 0.93
CAGTATTCTTCTATATGTACTTATTTAAATATTCTT [XGTACX_site7555]	7.93 ± 0.53
AATCAAAATTCATTAACACACAATTTTAATATTCTT [CACACA_site5178]	7.59 ± 0.56
TATTTTTATAAGAGCATGCACTGTTTAAAATGGTAT	8.37 ± 0.45
TTTTTTAAAATATGGACACACATATATATATATGTA [CACACA_site2784]	7.67 ± 0.3
AGAAAGAATGAAAAATGTACATATATGTAATAGCTA [XGTACX_site364]	7.87 ± 0.39
TAAAATTTAAAAAGGTGTACACTATAAATTAAAATA [XGTACX_site2081]	8.11 ± 0.7
ATAAAATCATTCAATGGTACAGAAATACAAAATGTA [XGTACX_site6739]	7.61 ± 0.64
TTAACATATGACATTTTTTCACCCTTCCTTTATTTT [CACACA_negctrl_site1192]	7.86 ± 0.74
TATGTATAAAAATATTGTACATATTATATATATATA [XGTACX_site2947]	8.905 ± 0.049
AGGTCACATTTGTCCTCACACATAGATAAATATATA [CACACA_site5460]	7.69 ± 0.45
TTTTTTTTTTTTTTTTTTTGATTCTTATAAAAATTT [GTGCAC_negctrl_site240]	7.94 ± 0.62
ATAATTTGATCAATTTTTCATTTTTCATTTTTTTAA [CACACA_negctrl_site1252]	7.52 ± 0.62
AATTAGCATTAAAAATGTACAAAAGAAAAAAATATA [XGTACX_site3816]	7.61 ± 0.64
GTCAAAAATAATATATGTACTTATAATAGATAAATG [XGTACX_site7755]	7.93 ± 0.28
GTATATAATTATATATGTACTAAATAAATATTTTTA [XGTACX_site6062]	7.55 ± 0.36
AAAAAATAAAAAAATAAAAAATAAAAAATAAAAAAT [TGCATGCA_negctrl_site90]	7.46 ± 0.59

Sequence	gcPBM binding intensity (ln)
TTTTCTAAAAAAAGTTGTACATCTTATTTATATTAT [XGTACX_site295]	7.69 ± 0.49
ATGTAAGACAAAAAGGGTACATAATGCGTATGTATT [XGTACX_site4666]	8.03 ± 0.72
AAAAATTACCCATCCATACACACATATTTTTTTTAA [CACACA_site2190]	8 ± 0.49
TATAAAAATAAATAAATAAATAAATAAATAAATAAA [TGCATGCA_negctrl_site310]	7.74 ± 0.58
AATATTTTTATATATATACACACTTACATATATATA [CACACA_site3609]	7.88 ± 0.47
ATAATATTGTGGTATACACACCTTACAAAAAGGTAC [CACACA_site5582]	8.01 ± 0.64
TTTTTAGTTAATTAAACACACAAAAAAAAAAATAAA [CACACA_site3930]	7.6 ± 0.45
ATTTTTTCATATTCTACACACGTGAACAAATGTGTC [CACACA_site3007]	8.09 ± 0.59
TATATTTGGTTTCATTCATTTTTATAGAAATCTCAA [CACACA_negctrl_site1412]	7.58 ± 0.35
TATTTTTTTACATATTGTACATAATATAAAACTTAC [XGTACX_site8273]	7.98 ± 0.41
CACACGTATATATATACACACTAAAATACCCAGACA [CACACA_site6142]	8.06 ± 0.57
ATATAATAGAAGTGTACACACATATTTATGGGTGTA [CACACA_site5686]	7.82 ± 0.32
AATGACTACATAATAGTGCAATATTAAAGAAAATTA	10.8 ± 0.55
ATTCTTAAAAAAAAATGTACACATGAACAATATGTA [XGTACX_site362]	7.63 ± 0.38
TGTATATCATAAGATGGTACACGTGTGTGCGTATGC [XGTACX_site2255]	8.71 ± 0.29
TATATATTATATATGTGTACTCACTAACAAAAATTA [XGTACX_site6285]	7.82 ± 0.33
AGGTGAATATTTTTTACACACATAAAAAAAATATAT [CACACA_site57]	8.12 ± 0.26
TTTAAGATTTTGTAATGTACATATATACATATATAT [XGTACX_site399]	7.77 ± 0.41
TATATTTTTATAATAACACACGATATATGTTTAGGA [CACACA_site1283]	8.1 ± 0.55
AAATTATATAAAGGAACACACATTTTATTTTATTTT [CACACA_site1500]	7.5 ± 0.49
TATAAATCTATAAATGCACACAAGGGAAGAAAAACG [CACACA_site2965]	9.46 ± 0.26
AAAGAACAAATAAAACATAAAATAATATATATAGAT [CACACA_negctrl_site1764]	7.79 ± 0.64
